Read-outs that look alike come from different tables or passages of the source.
T1: mouse TIGIT-His protein (Acrobiosystems) (mouse, UniProt P86176 29-148, limits assumed)
T1 construct: bought
T1 sequence (looked up): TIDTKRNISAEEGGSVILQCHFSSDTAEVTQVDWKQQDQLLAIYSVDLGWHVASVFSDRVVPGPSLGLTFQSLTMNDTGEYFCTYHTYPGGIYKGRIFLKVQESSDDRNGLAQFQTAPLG


Tests used:
PD-L1 expressed on cells [1] = molecular target: T2, PD-L1 expressed on cells (UniProt Q9NZQ7); assay: cell-based or functional assay
PD-L1 expressed on cells [2] = molecular target: T2, PD-L1 expressed on cells; assay: FACS competition, PD-1 binding to CHO-PD-L1 cells
[3] = molecular target: T3, human PD-L1 (Acrobiosystems) (human, UniProt Q9NZQ7 in part); assay: SPR as in Example 2
T3 construct: bought

[4] = molecular target: T1, mouse TIGIT-His protein (Acrobiosystems); assay: SPR as in Example 2
PD-L1 expressed on cells [5] = molecular target: T2, PD-L1 expressed on cells; assay: FACS, CHO-PD-L1 cells
PD-L1 expressed on cells [6] = molecular target: T2, PD-L1 expressed on cells; assay: FACS competition, PD-1 binding to CHO-PD-L1 cells; remark: listed apart in the source
[7] = molecular target: T3, human PD-L1 (Acrobiosystems); assay: SPR as in Example 2; remark: listed apart in the source
[8] = molecular target: T1, mouse TIGIT-His protein (Acrobiosystems); assay: SPR as in Example 2; remark: listed apart in the source
PD-L1 expressed on cells [9] = molecular target: T2, PD-L1 expressed on cells; assay: cell-based or functional assay; remark: listed apart in the source
PD-L1 expressed on cells [10] = molecular target: T2, PD-L1 expressed on cells; assay: FACS, CHO-PD-L1 cells; remark: listed apart in the source
PD-L1 expressed on cells [11] = molecular target: T2, PD-L1 expressed on cells; assay: cell-based or functional assay; remark: listed apart in the source

T2 sequence (Q9NZQ7 19-290 limits assumed): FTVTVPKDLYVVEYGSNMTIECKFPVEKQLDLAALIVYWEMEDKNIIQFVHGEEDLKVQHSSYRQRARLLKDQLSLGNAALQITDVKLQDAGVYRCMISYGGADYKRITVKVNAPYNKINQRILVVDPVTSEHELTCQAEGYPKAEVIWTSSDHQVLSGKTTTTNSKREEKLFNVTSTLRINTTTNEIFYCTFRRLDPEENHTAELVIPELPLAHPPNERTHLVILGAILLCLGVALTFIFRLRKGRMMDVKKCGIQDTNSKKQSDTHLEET
T3 sequence (Q9NZQ7 19-238 limits assumed): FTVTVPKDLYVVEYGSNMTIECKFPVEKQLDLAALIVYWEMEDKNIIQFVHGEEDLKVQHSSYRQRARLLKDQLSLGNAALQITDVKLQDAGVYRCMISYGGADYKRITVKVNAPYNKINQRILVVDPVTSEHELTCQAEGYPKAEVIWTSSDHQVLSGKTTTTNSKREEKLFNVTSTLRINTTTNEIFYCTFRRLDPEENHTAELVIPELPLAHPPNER

Binder | PD-L1 cell based assay EC50 (PD-L1 expressed on cells [1]) | EC50 (PD-L1 expressed on cells [2]) | Kd [3] | Kd [4] | EC50 (PD-L1 expressed on cells [5]) | EC50 (PD-L1 expressed on cells [6]) | Kd [7] | Kd [8] | PD-L1 cell-based assay EC50 (PD-L1 expressed on cells [9]) | EC50 (PD-L1 expressed on cells [10]) | PD-L1/TIGIT bifunctional reporter assay: EC50 (PD-L1 expressed on cells [11])
BTP-17 (bispecific antibody, human IgG1, kappa, AS19584VH28 - mutated hIgG1 hinge - h53C1 light chain; h53C1 (IgG1) heavy chain; also called BTP-17 (IgG1); PD-L1×TIGIT BABP) heavy: EVQLVQSGAEVKKPGASVKVSCKASGYIFTGYGITWVRQAPGQGLEWMGEIFPRRVQTYYSEKFKGRVTMTTDTSTSTAYMELRSLRSDDTAVYYCARDYDPYFALDYWGQGTTVTVSS[human IgG1 constant region not written out] light: EVQLVESGGGLVQPGGSLRLSCAASGYKYGVYSMGWFRQAPGKGLEGVSAICSGGRTTYSDSVKGRFTISRDNSNQILYLQMNSLRAEDTAVYYCAARPLWTGDCDLSSSWYKTWGQGTLVTVSSEPKSSDKTHTSPPSPDIQMTQSPSSLSASVGDRVTITCRASQDVSTAVDWYQQKPGKAPKLLIYSASYRYTGVPDRFSGSGSGTDFTFTISSLQPEDIATYYCQQHYSIPFTFGQGTKLEIKRTVAAPSVFIFPPSDEQLKSGTASVVCLLNNFYPREAKVQWKVDNALQSGNSQESVTEQDSKDSTYSLSSTLTLSKADYEKHKVYACEVTHQGLSSPVTKSFNRGEC | 3.84 nM | 2.35 nM | 0.65 nM | 0.81 nM | 3.56 nM | – | – | – | – | – | –
BTP-4 (bispecific antibody, human IgG1, kappa, AS19584 - mutated hIgG1 hinge - h53C1 (inert IgG1) heavy chain, with the h53C1 light chain; also called BTP-4 (h53C1 inert IgG1); POC PD-L1×TIGIT BABP) heavy: QVQLAESGGGSVQAGGSLRLSCAASGYKYGVYSMGWFRLAPGKEREGVAAICSGGRTTYSDSVKGRFTISKDSANQILYLQMNSLKPEDTAMYYCAARPLWTGDCDLSSSWYKTWGQGTQVTVSSEPKSSDKTHTSPPSPEVQLVQSGAEVKKPGASVKVSCKASGYIFTGYGITWVRQAPGQGLEWMGEIFPRRVQTYYSEKFKGRVTMTTDTSTSTAYMELRSLRSDDTAVYYCARDYDPYFALDYWGQGTTVTVSSASTKGPSVFPLAPSSKSTSGGTAALGCLVKDYFPEPVTVSWNSGALTSGVHTFPAVLQSSGLYSLSSVVTVPSSSLGTQTYICNVNHKPSNTKVDKKV[human IgG1 Fc with changes not written out] light: DIQMTQSPSSLSASVGDRVTITCRASQDVSTAVDWYQQKPGKAPKLLIYSASYRYTGVPDRFSGSGSGTDFTFTISSLQPEDIATYYCQQHYSIPFTFGQGTKLEIKRTVAAPSVFIFPPSDEQLKSGTASVVCLLNNFYPREAKVQWKVDNALQSGNSQESVTEQDSKDSTYSLSSTLTLSKADYEKHKVYACEVTHQGLSSPVTKSFNRGEC | – | – | – | – | – | 0.469 nM | 0.51 nM | 0.56 nM | 1.79 nM | 0.627 nM | –
BTP-15 (bispecific antibody, human IgG1, kappa, AS19584VH28 - mutated hIgG1 hinge - h53C1 (IgG1) heavy chain; also called BTP-15 (IgG1); PD-L1×TIGIT BABP) heavy: EVQLVESGGGLVQPGGSLRLSCAASGYKYGVYSMGWFRQAPGKGLEGVSAICSGGRTTYSDSVKGRFTISRDNSNQILYLQMNSLRAEDTAVYYCAARPLWTGDCDLSSSWYKTWGQGTLVTVSSEPKSSDKTHTSPPSPEVQLVQSGAEVKKPGASVKVSCKASGYIFTGYGITWVRQAPGQGLEWMGEIFPRRVQTYYSEKFKGRVTMTTDTSTSTAYMELRSLRSDDTAVYYCARDYDPYFALDYWGQGTTVTVSS[human IgG1 constant region not written out] light: DIQMTQSPSSLSASVGDRVTITCRASQDVSTAVDWYQQKPGKAPKLLIYSASYRYTGVPDRFSGSGSGTDFTFTISSLQPEDIATYYCQQHYSIPFTFGQGTKLEIKRTVAAPSVFIFPPSDEQLKSGTASVVCLLNNFYPREAKVQWKVDNALQSGNSQESVTEQDSKDSTYSLSSTLTLSKADYEKHKVYACEVTHQGLSSPVTKSFNRGEC | 8.11 nM | 1.83 nM | 0.54 nM | 0.75 nM | 3.53 nM | – | – | – | – | – | –
h53C1 (IgG1) mAb (antibody, also called h53C1 (IgG1) (anti-PD-L1); humanized 53C1) heavy: EVQLVQSGAEVKKPGASVKVSCKASGYIFTGYGITWVRQAPGQGLEWMGEIFPRRVQTYYSEKFKGRVTMTTDTSTSTAYMELRSLRSDDTAVYYCARDYDPYFALDYWGQGTTVTVSS[human IgG1 constant region not written out] light: DIQMTQSPSSLSASVGDRVTITCRASQDVSTAVDWYQQKPGKAPKLLIYSASYRYTGVPDRFSGSGSGTDFTFTISSLQPEDIATYYCQQHYSIPFTFGQGTKLEIKRTVAAPSVFIFPPSDEQLKSGTASVVCLLNNFYPREAKVQWKVDNALQSGNSQESVTEQDSKDSTYSLSSTLTLSKADYEKHKVYACEVTHQGLSSPVTKSFNRGEC | 4.02 nM | 0.636 nM | 0.35 nM | – | 1.25 nM | 0.432 nM | 0.5 nM | – | 1.87 nM | 0.466 nM | –

Now from value to binder:

PD-L1 cell based assay EC50 (PD-L1 expressed on cells [1]) | EC50 (PD-L1 expressed on cells [2]) | Kd [3] | Kd [4] | EC50 (PD-L1 expressed on cells [5]) | EC50 (PD-L1 expressed on cells [6]) | Kd [7] | Kd [8] | PD-L1 cell-based assay EC50 (PD-L1 expressed on cells [9]) | EC50 (PD-L1 expressed on cells [10]) | PD-L1/TIGIT bifunctional reporter assay: EC50 (PD-L1 expressed on cells [11]) | Binder
5.83 nM | 5.91 nM | 0.79 nM | 0.77 nM | 4.86 nM | – | – | – | – | – | – | BTP-22 (bispecific antibody, human IgG1, kappa, AS19584VH28 - mutated hIgG1 hinge - h53C1 light chain; h53C1 (inert IgG1) heavy chain; also called BTP-22 (inert IgG1); PD-L1×TIGIT BABP) heavy: EVQLVQSGAEVKKPGASVKVSCKASGYIFTGYGITWVRQAPGQGLEWMGEIFPRRVQTYYSEKFKGRVTMTTDTSTSTAYMELRSLRSDDTAVYYCARDYDPYFALDYWGQGTTVTVSSASTKGPSVFPLAPSSKSTSGGTAALGCLVKDYFPEPVTVSWNSGALTSGVHTFPAVLQSSGLYSLSSVVTVPSSSLGTQTYICNVNHKPSNTKVDKKV[human IgG1 Fc with changes not written out] light: EVQLVESGGGLVQPGGSLRLSCAASGYKYGVYSMGWFRQAPGKGLEGVSAICSGGRTTYSDSVKGRFTISRDNSNQILYLQMNSLRAEDTAVYYCAARPLWTGDCDLSSSWYKTWGQGTLVTVSSEPKSSDKTHTSPPSPDIQMTQSPSSLSASVGDRVTITCRASQDVSTAVDWYQQKPGKAPKLLIYSASYRYTGVPDRFSGSGSGTDFTFTISSLQPEDIATYYCQQHYSIPFTFGQGTKLEIKRTVAAPSVFIFPPSDEQLKSGTASVVCLLNNFYPREAKVQWKVDNALQSGNSQESVTEQDSKDSTYSLSSTLTLSKADYEKHKVYACEVTHQGLSSPVTKSFNRGEC
– | – | – | – | – | 0.468 nM | 0.49 nM | 0.59 nM | 1.97 nM | 0.636 nM | – | BTP-5 (bispecific antibody, human IgG1, kappa, AS19584 - mutated hIgG1 hinge - h53C1 (IgG1) heavy chain, with the h53C1 light chain; also called BTP-5 (h53C1 IgG1); POC PD-L1×TIGIT BABP) heavy: QVQLAESGGGSVQAGGSLRLSCAASGYKYGVYSMGWFRLAPGKEREGVAAICSGGRTTYSDSVKGRFTISKDSANQILYLQMNSLKPEDTAMYYCAARPLWTGDCDLSSSWYKTWGQGTQVTVSSEPKSSDKTHTSPPSPEVQLVQSGAEVKKPGASVKVSCKASGYIFTGYGITWVRQAPGQGLEWMGEIFPRRVQTYYSEKFKGRVTMTTDTSTSTAYMELRSLRSDDTAVYYCARDYDPYFALDYWGQGTTVTVSS[human IgG1 constant region not written out] light: DIQMTQSPSSLSASVGDRVTITCRASQDVSTAVDWYQQKPGKAPKLLIYSASYRYTGVPDRFSGSGSGTDFTFTISSLQPEDIATYYCQQHYSIPFTFGQGTKLEIKRTVAAPSVFIFPPSDEQLKSGTASVVCLLNNFYPREAKVQWKVDNALQSGNSQESVTEQDSKDSTYSLSSTLTLSKADYEKHKVYACEVTHQGLSSPVTKSFNRGEC
5.04 nM | 3.66 nM | 0.5 nM | 0.79 nM | 3.36 nM | – | – | – | – | – | – | BTP-21 (bispecific antibody, human IgG1, kappa, AS19584VH28 - mutated hIgG1 hinge - h53C1 (inert IgG1) heavy chain; also called BTP-21 (inert IgG1); PD-L1×TIGIT BABP) heavy: EVQLVESGGGLVQPGGSLRLSCAASGYKYGVYSMGWFRQAPGKGLEGVSAICSGGRTTYSDSVKGRFTISRDNSNQILYLQMNSLRAEDTAVYYCAARPLWTGDCDLSSSWYKTWGQGTLVTVSSEPKSSDKTHTSPPSPEVQLVQSGAEVKKPGASVKVSCKASGYIFTGYGITWVRQAPGQGLEWMGEIFPRRVQTYYSEKFKGRVTMTTDTSTSTAYMELRSLRSDDTAVYYCARDYDPYFALDYWGQGTTVTVSSASTKGPSVFPLAPSSKSTSGGTAALGCLVKDYFPEPVTVSWNSGALTSGVHTFPAVLQSSGLYSLSSVVTVPSSSLGTQTYICNVNHKPSNTKVDKKV[human IgG1 Fc with changes not written out] light: DIQMTQSPSSLSASVGDRVTITCRASQDVSTAVDWYQQKPGKAPKLLIYSASYRYTGVPDRFSGSGSGTDFTFTISSLQPEDIATYYCQQHYSIPFTFGQGTKLEIKRTVAAPSVFIFPPSDEQLKSGTASVVCLLNNFYPREAKVQWKVDNALQSGNSQESVTEQDSKDSTYSLSSTLTLSKADYEKHKVYACEVTHQGLSSPVTKSFNRGEC
6.88 nM | 1.97 nM | 0.44 nM | – | 2.01 nM | 0.339 nM | 0.41 nM | – | 1.81 nM | 0.451 nM | 2.76 nM | h53C1 (inert IgG1) mAb (antibody, in-house anti-PD-L1 antibody with effectorless human IgG1 Fc) heavy: EVQLVQSGAEVKKPGASVKVSCKASGYIFTGYGITWVRQAPGQGLEWMGEIFPRRVQTYYSEKFKGRVTMTTDTSTSTAYMELRSLRSDDTAVYYCARDYDPYFALDYWGQGTTVTVSSASTKGPSVFPLAPSSKSTSGGTAALGCLVKDYFPEPVTVSWNSGALTSGVHTFPAVLQSSGLYSLSSVVTVPSSSLGTQTYICNVNHKPSNTKVDKKV[human IgG1 Fc with changes not written out] light: DIQMTQSPSSLSASVGDRVTITCRASQDVSTAVDWYQQKPGKAPKLLIYSASYRYTGVPDRFSGSGSGTDFTFTISSLQPEDIATYYCQQHYSIPFTFGQGTKLEIKRTVAAPSVFIFPPSDEQLKSGTASVVCLLNNFYPREAKVQWKVDNALQSGNSQESVTEQDSKDSTYSLSSTLTLSKADYEKHKVYACEVTHQGLSSPVTKSFNRGEC
